Results taken from paper PMC6212398 (Nature Communications, 2018).

B1: Hsp27 3D (pseudo-phosphorylation mutant S15D, S78D, S82D) (natural protein)
chain: not shown
notes: Human Hsp27 (HSPB1) in which three serines (S15, S78 and S82) are replaced with aspartate; Vector was a gift of the Dickey laboratory; Compared throughout with the full-length wild type, so probably the whole protein
B2: Hsp27 ΔNTD ([…]) (domain or fragment)
chain: not shown
notes: Human Hsp27 (HSPB1) without the N-terminal domain, […]; Heterogeneous mixture of 3–5 mers; source: E. coli BL21 (DE3), purified (Ni-NTA, size exclusion)

Legend:
[1] = target: the molecule itself; assay: SEC-MALS + other: negative-stain EM; SEC-MALS on a Shodex 804 column in SEC buffer, Hsp27 40 µM; negative-stain EM of Hsp27 at 1 µM in SEC buffer
[2] = target: the molecule itself; assay: not stated; oligomeric state of Hsp27 GPG, ΔNTD and ΔNTD GPG (Supplementary Figure 8B, 8C); method not given

Protein	binding result [1]	stoichiometry N [2]
B1	binds	–
B2	–	3 to 5
